“And” between values parts separate entries of the source, which are not always exact repeats. Equal values may be shown once. Among all 110,000 compounds or so, about 230 (0.21%) showed an effect of 50% or more. The list shows a part of the results.
target: DPAP1 (Plasmodium falciparum, UniProt Q8IIJ9); test: primary screen, percent inhibition; read by cleavage of a fluorogenic dipeptide substrate; higher = more effect of the substance; set-up: species or system P. falciparum D10 trophozoite lysates; single well
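Further: 30 min substrate incubation versus DMSO and 10 µM JCP410 controls.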

DPAP1, sequence (Q8IIJ9 whole entry, looked up): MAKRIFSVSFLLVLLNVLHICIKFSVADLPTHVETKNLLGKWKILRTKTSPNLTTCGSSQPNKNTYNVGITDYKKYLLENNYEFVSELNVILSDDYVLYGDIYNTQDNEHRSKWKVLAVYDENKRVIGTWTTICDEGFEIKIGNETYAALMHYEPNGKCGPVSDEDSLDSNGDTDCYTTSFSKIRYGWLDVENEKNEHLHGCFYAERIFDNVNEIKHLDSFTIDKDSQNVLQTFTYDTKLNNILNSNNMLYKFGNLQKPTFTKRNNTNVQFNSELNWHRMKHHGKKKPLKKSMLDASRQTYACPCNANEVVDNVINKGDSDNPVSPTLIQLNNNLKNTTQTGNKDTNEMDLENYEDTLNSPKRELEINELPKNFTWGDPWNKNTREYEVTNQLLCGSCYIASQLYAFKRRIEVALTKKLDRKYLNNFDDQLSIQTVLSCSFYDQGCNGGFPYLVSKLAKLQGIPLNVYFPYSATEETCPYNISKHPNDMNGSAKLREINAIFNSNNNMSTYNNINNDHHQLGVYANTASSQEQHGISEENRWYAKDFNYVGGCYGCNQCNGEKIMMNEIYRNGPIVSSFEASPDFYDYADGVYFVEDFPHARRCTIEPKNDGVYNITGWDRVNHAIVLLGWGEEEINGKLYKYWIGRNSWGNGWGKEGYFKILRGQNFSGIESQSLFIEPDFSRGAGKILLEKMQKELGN

Row | SMILES | % Inhibition @ 10 uM
1 | COc1ccc(CCNC(=O)C(C)n2ccc3cc(S(=O)(=O)N4CCCC4)ccc32)cc1OC (stereo not shown) | 5.14%
2 | COc1cc2c(cc1OC)C1C(C(=O)NCCC3=CCCCC3)c3ccccc3C(=O)N1CC2 (stereo not shown) | 5.19%
3 | CCc1ccccc1N(CC(=O)Nc1ccc(OC)cc1OC)S(C)(=O)=O | 2.02%
4 | COc1ccccc1C(=O)Nc1cccnc1 | -1.96%
5 | Cc1ccc(-n2nc3c(=O)n(CCCC(=O)NCCN4CCN(C)CC4)nc(C)c3c2C)cc1 | -2.68%
6 | CC(NS(=O)(=O)c1ccc(F)cc1)c1ccccc1 (stereo not shown) | -8.01%
7 | CCC(C)Oc1ccc(C2CC(=O)NC3=C2C(=O)CC(C)(C)C3)cc1 (stereo not shown) | -3.51%
8 | Cc1ccc(N(Cc2ccc(C(=O)Nc3ccccc3)cc2)S(C)(=O)=O)cc1C | 3.17%
9 | O=C(CSc1ncnc2scc(-c3ccccc3)c12)N1CCCCCC1 | 5.61%
10 | CC1CCN(C(=O)c2nn3c(c2Cl)NC(c2ccco2)CC3C(F)(F)F)CC1 (stereo not shown) | -0.996%
11 | O=C(/C=C/c1ccco1)N(Cc1ccccc1F)C1CCS(=O)(=O)C1 (stereo not shown) | 3.62%
12 | COc1ccc(NC(=O)COc2ccc(C)cc2)cc1 | -3.92%
13 | C=CCOc1ccc(C(=O)C2=C(O)C(=O)N(CCN(C)C)C2c2ccc(OC)c(OC)c2)cc1C (stereo not shown) | 3.15%
14 | COc1ccc(C(=O)Nc2nc3c(s2)CCCC3)c(OC)c1OC | 5.55%
15 | C=CCN(CC#CC(O)(c1ccccc1)c1ccccc1)CC=C | -1.99%
16 | CCN(CC)CCCNCc1ccc(OC(C)C)c(OC)c1 | -4.97%
17 | COc1ccc(Br)cc1C(=O)Nc1ccc(CN2CCOCC2)cc1 | -6.43%
18 | O=C(n1nnc2cc(Cl)c(Cl)cc21)C(F)(F)F | -1.29%
19 | Cc1nn(-c2cccc(F)c2)c2c1c(C(F)(F)F)cc(=O)n2CC(=O)NCc1ccco1 | -3.04%
20 | Cc1cc2c(cc1C)C(=O)NC(C)(C)C2 | 0.162%
21 | COc1ccc(NC(=O)CCN2CCN(c3ccccc3)CC2)cc1 | -4.21%
22 | COc1ccc(-c2cn3c(n2)sc2cc(C(=O)N4CCCC(C)C4)ccc23)cc1 (stereo not shown) | 1.52%
23 | COc1ccc2c(c1)c1c(c(=O)n(Cc3ccccc3)c(=O)n1Cc1cc(=O)n3ccccc3n1)n2C | -0.742%
24 | CCOC(=O)C1=C(C)N(C)C(=O)NC1c1ccccc1O (stereo not shown) | -8.17%
25 | Cc1ccc(NC(=O)c2c(-c3c(F)cccc3Cl)noc2C)nc1 | -0.999%

Row | SMILES | % Inhibition @ 10 uM
26 | O=C(NCc1ccco1)C1CCN(c2nn3cc(-c4ccc(F)cc4)nc3s2)CC1 | 0.0322%
27 | O=c1cc(-c2ccccc2)c2cc(Cl)c(OCc3ccc(F)cc3)cc2o1 | -0.267%
28 | CC(C)c1ccc(C2NCCc3[nH]cnc32)cc1 (stereo not shown) | 0.774%
29 | O=C(c1ccc(CNS(=O)(=O)c2cccc(Cl)c2)cc1)N1CCN(c2ccccc2)CC1 | 5.92%
30 | CCCn1c(=O)c2sccc2n2c(CCCC(=O)NCC3CCCO3)nnc12 (stereo not shown) | -2.15%
31 | O=C(NCc1ccncc1)c1ccc2nc(/C=C(\O)c3ccc(Cl)cc3)c(O)nc2c1 | -7.91%
32 | CCN(CC)S(=O)(=O)c1csc(C(=O)OCC(=O)c2ccccc2)c1 | -6.17%
33 | COc1ccc(OC)c(S(=O)(=O)NCc2ccccc2OC)c1 | -7.01%
34 | CCN(CC)CCNC(=O)Cn1cnc2sc(C)c(S(=O)(=O)N3CC(C)CC(C)C3)c2c1=O (stereo not shown) | 0.813%
35 | CC1=NN(c2nc3ccccc3s2)C(=O)C1 | 0.968%
36 | CC1CCCCC1NC(=O)Cn1ccc2cc(S(=O)(=O)N3CCCC3)ccc21 (stereo not shown) | -5.04%
37 | CCOc1ccc(S(=O)(=O)Nc2cccc(-c3cn4ccsc4n3)c2)cc1 | 1.37%
38 | CCC(Oc1ccccc1)C(=O)Nc1ccc(F)cc1 (stereo not shown) | 1.13%
39 | C=CCNC(=O)C(=O)Nc1ccc(Br)cc1 | 2.94%
40 | Cc1ccc(C(=O)N2CCc3ccccc3C2)cc1[N+](=O)[O-] | -6.27%
41 | Clc1ccc(-n2ncnc2-c2ccncc2)cc1 | -1.56%
42 | COc1cccc(NC(=O)Nc2ccc3c(c2)nc(C)n3C)c1 | 7.98%
43 | COc1ccc(C(=O)CSc2nc3nc(C)cc(C)n3n2)cc1OC | -1.11%
44 | O=C(Cc1cccc2ccccc12)NCc1ccc(F)cc1 | -1.46%
45 | CC(=O)c1c(O)cc(C(C)C)n(-c2ccccc2)c1=O | 4.7%
46 | Cc1ccc(-n2ccc(N)cc2=O)cc1 | 1.24%
47 | Cc1cccc(OC(C)C(=O)NCc2ccc(F)cc2)c1 (stereo not shown) | -3.77% and -1.51%
48 | COc1ccc(NC(=O)c2ccc(C(C)(C)C)cc2)c(OC)c1 | -3.24%
49 | CC(=O)/C(Sc1nnc(-c2ccccc2Cl)n1-c1ccccc1)=C(/C)O | -0.597%
50 | CCOC(=O)c1c(C)nc2sccn12 | 5.16%

Row | SMILES | % Inhibition @ 10 uM
51 | Fc1ccccc1OCCN1CCCC1 | -2.91%
52 | CCO/C(O)=C1/C(C)=NC2=C(C(=O)CCC2)C1c1ccc(SC)cc1 (stereo not shown) | -3.09%
53 | O=C(O)c1cc(-c2ccc3c(c2)OCCO3)nc2ccc(Br)cc12 | -9.93%
54 | CCOC(=O)c1c(NC(=O)C2CCCCC2)sc(C(=O)NC2CCCCC2)c1C | 5.44%
55 | C=CCNC(=O)CCCc1nc(-c2ccccc2Cl)no1 | 2.01%
56 | Cn1c(=O)[nH]c(=O)c2c1ncn2Cc1ccccc1F | -2.84%
57 | CCC(C)(C(=O)NC1CCCC1)N(CC1CCCO1)C(=O)CNC(=O)c1ccccc1 (stereo not shown) | 7.29%
58 | COc1ccccc1CNC(=O)[C@H](Cc1ccccc1)N1Cc2ccccc2C1=O | 4.54%
59 | COc1cc(C(=O)NCc2nc3ccccc3n2CC(C)C)cc(OC)c1OC | 0.505%
60 | CCCN1CCN(C(=O)c2oc3ccc(S(=O)(=O)N4CCOCC4)cc3c2C)CC1 | -4.06%
61 | O=C(Nc1c(O)c2ccccc2oc1=O)c1ccccc1F | 6.77%
62 | CN(Cc1ccccc1)S(=O)(=O)c1ccc(N)cc1 | 0.475%
63 | Cc1ccc(-c2csc(-c3ccccn3)n2)cc1 | 1%
64 | Cn1cnc2c(=O)oc3ccc(S(=O)(=O)N4CCCCC4c4cccnc4)cc3c21 (stereo not shown) | -6.31%
65 | CCOC(=O)N1CCN(C(=O)c2cc3cc(OC)ccc3oc2=O)CC1 | 2.26%
66 | COc1ccc2c(c1)CCC/C2=C\CN1C(=O)c2ccccc2C1O (stereo not shown) | -0.496%
67 | CC(O)CNc1cnc(O)nc1O (stereo not shown) | -1.68%
68 | Cc1ccc(C)c(Cc2c(C)nc3c(C(=O)NCc4ccc(F)cc4)cnn3c2C)c1 | 2.9%
69 | COc1ccc(-c2nc(CSCC(=O)NCCCN3CCCC3=O)c(C)o2)cc1 | -2.85%
70 | Cc1ccnc(NS(=O)(=O)c2c(C(C)C)cc(C(C)C)cc2C(C)C)c1 | 0.00784%
71 | Cc1ccccc1Cn1nc(C)c(NC(=O)C2=CC(c3cccs3)=NS(=O)(=O)N2C)c1C | 0.655%
72 | CCOCCCNC(=O)C1C2C(=O)N(Cc3ccccc3)CC23C=CC1(C)O3 (stereo not shown) | -7.73%
73 | COc1ccc(Br)cc1/C=c1\sc2nc(-c3ccc(OC)c(OC)c3)nn2c1=O | -4.85%
74 | O=C(O)CNC(=O)/C(=C/c1ccc2c(c1)OCO2)NC(=O)c1cccc(Br)c1 | -0.941%
75 | COc1ccc(CNC(=O)CN(c2ccc(F)cc2)S(=O)(=O)c2ccc3c(c2)OCCO3)cc1 | 3.49%

Row | SMILES | % Inhibition @ 10 uM
76 | CCN1C(=O)CC(C(=O)Nc2ccc(OC)cc2)S/C1=N\c1ccc(F)cc1 (stereo not shown) | 0.324%
77 | CCC(CC)N1CCN(S(=O)(=O)c2ccc(OC)cc2)CC1 | -3.34%
78 | Cc1cccc(C)c1N(CC(=O)NCC1CCCO1)S(C)(=O)=O (stereo not shown) | -1.11%
79 | Cc1ccccc1OC(C)C(=O)Nc1ccccc1O (stereo not shown) | 0.795%
80 | O=c1c(-c2ccc3c(c2)OCCO3)coc2c(CN3CCCCCC3)c(O)ccc12 | -3.65%
81 | COc1ccc(-c2c3c(=O)n(C)c(=O)n(C)c3cn2-c2cccc3ccccc23)cc1 | 2.95%
82 | O=C1C2C3C=CC(C4CC34)C2C(=O)N1c1ccncc1 (stereo not shown) | -2.8%
83 | CCc1nn(CCCC(=O)NCCN2CCOCC2)c(=O)c2cc3occc3n12 | 1.38%
84 | O=C(c1ccc(Br)cc1)n1nnc2ccccc21 | -2.41%
85 | O=C(COCc1cc(-c2ccc3c(c2)OCO3)on1)NCc1ccco1 | 0.822%
86 | CN1CCN(c2cc(-c3cccnc3)nc3ccccc23)CC1 | -0.292%
87 | CCOc1ccc(-c2ncccc2O)cc1 | -0.415%
88 | CSC1=C(C#N)C(c2cccc(O)c2)CC(=O)N1 (stereo not shown) | -1.37%
89 | O=C(O)CCC(=O)n1ncc2ccc(Cl)cc21 | -5.32%
90 | CCOc1cnn(-c2ccccc2)c(=O)c1OCC | -2.02%
91 | c1ccc(-c2nnc(COc3ccc4oc5ccccc5c4c3)o2)cc1 | -3.34%
92 | CC(Cc1ccccc1)NC(=O)C(c1ccc(N)cc1)c1ccc(N)cc1 (stereo not shown) | -5.31%
93 | CS(=O)(=O)N1CCC(C(=O)NCc2ccc(F)cc2)CC1 | -1.34%
94 | CC1CC(C)CN(C(=O)c2ccc3c(c2)ncn3C2CCCC2)C1 (stereo not shown) | -4.97%
95 | C/C(Cl)=C/Cn1c(=O)c2c(nc3n2CCS3)n(C)c1=O | -4.8%
96 | CCOC(=O)c1cnc2c(C)cccc2c1NCCc1ccc(OC)c(OC)c1 | 4.18%
97 | O=C(Cn1ncc2c3ccccc3nc-2c1O)N1CC=C(c2ccccc2)CC1 | 11.2%
98 | CCCCCC(=O)NC1(CCC)CCCC1 | 0.132%
99 | COCCO/C(O)=C1\C(C)=NC2=C(C(=O)CC(C)(C)C2)C1c1cccc2ccccc12 (stereo not shown) | 2.45%
100 | COC(=O)C1=C(C)N(CCc2ccc(OC)c(OC)c2)C(=O)/C1=C\c1ccc(F)cc1 | -3.06%

Reference: PMC6919601, “Identification of Plasmodium dipeptidyl aminopeptidase allosteric inhibitors by high throughput screening” (PLoS ONE, 2019)
